The whole screen tested about 350,000 compounds, of which about 31,000 (8.9%) were called active. Inconclusive results, whose numbers are uncertain, are shown with a selection of clear calls. The call rests on the fitted dose curve; in most records, active means well fitted inhibition curve with a large enough effect; inconclusive means small, poorly fitted or top-dose-only effect; inactive means no such curve, though single readings can be large or run the other way. Where the call is inconclusive, the potency comes from a doubtful curve fit.
These compounds were tested against Histone-lysine N-methyltransferase EHMT2 (Homo sapiens) (UniProt Q96KQ7) (assay: qHTS Assay for Inhibitors of Histone Lysine Methyltransferase G9a). Conditions: G9a H3K9 monomethylation, AlphaScreen, 2 h; activity, negative = inhibition: at 59 µM (top of the series) unless noted.
Chain of UniProt Q96KQ7 (Q96KQ7 whole entry, looked up): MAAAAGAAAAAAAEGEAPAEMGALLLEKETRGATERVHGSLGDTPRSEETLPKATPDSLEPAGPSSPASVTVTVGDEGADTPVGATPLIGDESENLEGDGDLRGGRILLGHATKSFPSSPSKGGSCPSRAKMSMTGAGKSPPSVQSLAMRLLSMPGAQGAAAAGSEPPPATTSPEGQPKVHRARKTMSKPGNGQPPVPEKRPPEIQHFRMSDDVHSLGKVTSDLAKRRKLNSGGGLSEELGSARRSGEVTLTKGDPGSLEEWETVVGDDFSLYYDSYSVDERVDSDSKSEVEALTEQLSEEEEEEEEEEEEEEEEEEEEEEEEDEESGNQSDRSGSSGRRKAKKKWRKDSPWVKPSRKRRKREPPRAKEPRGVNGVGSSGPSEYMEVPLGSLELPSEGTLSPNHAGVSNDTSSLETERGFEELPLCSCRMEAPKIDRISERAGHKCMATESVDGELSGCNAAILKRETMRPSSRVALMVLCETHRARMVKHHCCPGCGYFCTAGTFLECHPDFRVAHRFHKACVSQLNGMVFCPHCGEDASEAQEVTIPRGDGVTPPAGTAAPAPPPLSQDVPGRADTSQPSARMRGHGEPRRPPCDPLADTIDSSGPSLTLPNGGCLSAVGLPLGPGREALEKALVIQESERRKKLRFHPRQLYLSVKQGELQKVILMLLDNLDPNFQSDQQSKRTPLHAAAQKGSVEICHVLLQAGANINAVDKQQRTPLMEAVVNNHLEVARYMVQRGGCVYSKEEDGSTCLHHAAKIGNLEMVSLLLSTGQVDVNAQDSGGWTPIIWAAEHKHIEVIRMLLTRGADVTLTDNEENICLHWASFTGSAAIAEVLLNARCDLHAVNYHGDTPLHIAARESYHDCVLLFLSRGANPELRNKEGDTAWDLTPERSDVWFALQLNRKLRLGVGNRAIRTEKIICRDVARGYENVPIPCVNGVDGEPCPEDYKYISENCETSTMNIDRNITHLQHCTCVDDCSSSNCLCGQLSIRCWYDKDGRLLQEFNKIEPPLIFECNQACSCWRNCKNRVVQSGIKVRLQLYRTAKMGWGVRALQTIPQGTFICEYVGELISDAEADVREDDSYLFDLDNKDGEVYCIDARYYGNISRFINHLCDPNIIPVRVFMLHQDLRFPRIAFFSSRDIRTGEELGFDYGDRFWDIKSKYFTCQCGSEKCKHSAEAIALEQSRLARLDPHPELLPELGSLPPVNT
Method in brief: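 Compounds were preincubated with 20 nM G9a for 15 min, after which biotinylated H3K9 peptide (500 nM) and SAM (20 uM) started a 2 h room-temperature reaction. Monomethylated product was quantified by antibody-based AlphaScreen chemiluminescence.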
For Cc1ccc(C2=NNC(=Nc3ccc(F)cc3)SC2)cc1, the Potency was inconclusive: 44.7 µM [inhibitor, partial curve].
With CC(=O)NC(c1ccco1)c1cc(Cl)c2cccnc2c1O (configuration not stated) the activity, negative = inhibition was inactive: 14.1% [at 12.7 µM].
O=C(Cn1cc(SCc2ccc(C(F)(F)F)cc2)c2ccccc21)N1CCOCC1 was tested, and the Potency was inconclusive: 10 µM [inhibitor, partial curve, poor fit].
For O=C(CN(C(=O)CNC(=O)c1ccco1)c1cccc(F)c1)NC1CCCCC1, the “activity, negative = inhibition” value was inactive: -7.44% [at 102 µM].
In the case of O=C(CN1C(=O)C(=O)N(Cc2ccco2)C1=O)c1c[nH]c2ccccc12, the Potency is reported as active: 50.1 µM.
For Cc1ccc(CNS(=O)(=O)c2c(C(=O)N3CCCCC3)c(C)n(C)c2C)o1, the “activity, negative = inhibition” value was inactive: 17.7% [at 102 µM].
In the case of CCOc1ccc(NC(=O)COC(=O)Cc2ccc(S(=O)(=O)N3CCOCC3)s2)cc1, the Potency is reported as active: 39.8 µM.
With N#CCCN(/N=C/c1cccnc1)C1=NS(=O)(=O)c2ccccc21 the Potency was inconclusive: 44.7 µM [inhibitor, partial curve, poor fit].
With COCCCN(C(=S)Nc1ccc(C)cc1Cl)C(C)c1ccncc1 (configuration not stated) the “activity, negative = inhibition” value was inactive: 21.6%.
With C[n+]1ccc(/C=C/c2c[nH]c3ccc(F)cc23)cc1 the Potency was inconclusive: 89.1 µM [inhibitor, single point].
O=C(CS(=O)(=O)c1ccccc1)c1cc2cc(F)ccc2oc1=O was tested, and the Potency was inconclusive: 79.4 µM [inhibitor, single point].
In the case of COc1cc(C2Nc3cccc4cccc(c34)N2)ccc1OC(C)=O, the Potency is reported as active: 14.1 µM.
With CC(C)CNc1oc(-c2ccc(F)cc2)nc1C#N the Potency was inconclusive: 22.4 µM [inhibitor, single point].
For COc1ccc(S(=O)(=O)N2CCCCC2)cc1NC(=O)c1ccc([N+](=O)[O-])o1, the “activity, negative = inhibition” value was inactive: 1.34% [at 102 µM].
For Cc1ccccc1-n1c(=O)cc(N2CCN(Cc3ccccc3)CC2)[nH]c1=O, the Potency was active: 56.2 µM.
For CCC(=O)N1CCc2cc(S(=O)(=O)CCC(=O)Nc3ccc(OC(F)(F)F)cc3)ccc21, the Potency was inconclusive: 31.6 µM [inhibitor, partial curve, poor fit].
With CCc1ccc(-c2cc(N)n(-c3ccccc3)n2)cc1 the Potency was active: 44.7 µM.
COc1cc(C2Nc3ccccc3NC3=C2C(=O)CC(C)(C)C3)cc(OC)c1OC(C)=O (configuration not stated) was tested, and the Potency was active: 50.1 µM.
COc1ccc2nc3oc(C(=O)N4CCN(c5cc(C)ccc5C)CC4)cc3cc2c1 was tested, and the “activity, negative = inhibition” value was inactive: -27.6%.
With COc1cccc(-c2nc(CS(=O)(=O)CC(=O)N3CCc4ccccc4C3)c(C)o2)c1 the Potency was inconclusive: 22.4 µM [inhibitor, single point].
CCc1ccc(NCc2cc3ccc(OC)cc3n(CC(=O)Nc3ccc(F)cc3F)c2=O)cc1 was tested, and the Potency was inconclusive: 6.31 µM [inhibitor, partial curve, poor fit].
In the case of COc1ccc(NC2CCCN(Cc3cccc4cnccc34)C2)cc1 (configuration not stated), the Potency is reported as active: 44.7 µM.
CC1=NN(C(N)=S)C(=O)C1N=Nc1ccc(Cl)cc1 (configuration not stated) was tested, and the Potency was active: 70.8 µM.
Cc1nn(-c2ccccc2)c2c1N(CCCC(=O)NCc1ccc(N(C)C)cc1)C(=O)CS2 was tested, and the Potency was inconclusive: 22.4 µM [inhibitor, single point].
For Cc1ccc(S(=O)(=O)N2CCOCC2)cc1C(=O)Nc1ccccc1N1CCCC1, the activity, negative = inhibition was inactive: 11% [at 0.501 µM].
CC(C)(c1ccccc1)c1ccc(OCCCNCCO)cc1 was tested, and the activity, negative = inhibition was inactive: -23.1% [at 12.7 µM].
S=c1[nH]nc(-c2cccnc2)n1/N=C/C(Cl)=C\c1ccccc1 was tested, and the Potency was active: 0.891 µM.
With COC(=O)c1ccc(NC(=O)CSCc2ccc(C)cc2)cc1 the Potency was inconclusive: 50.1 µM [inhibitor, partial curve].
Cc1ccc(OCCn2nc3ccccc3n2)c(C)c1 was tested, and the “activity, negative = inhibition” value was inactive: 101% [at 102 µM].
CN1C(=O)CN2CCc3ccccc3C2c2cc(Cl)ccc21 (configuration not stated) was tested, and the Potency was inconclusive: 3.98 µM [inhibitor, single point].
COc1cc2c(cc1OC)C1=C(C#N)COCN1CC2 was tested, and the Potency was active: 14.1 µM.
For N#CC1=C(N)Oc2n[nH]c(-c3ccc(F)cc3)c2C1c1cccc(OC(=O)N2CCOCC2)c1 (configuration not stated), the Potency was inconclusive: 89.1 µM [inhibitor, single point].
CCN(CC)c1ccc(C=C2C(=O)OC(c3ccccc3)OC2=O)cc1 (configuration not stated) was tested, and the Potency was inconclusive: 39.8 µM [inhibitor, single point].
For O=C(Nc1cccc(F)c1)/C(=C\c1ccco1)NC(=O)c1cccs1, the Potency was inconclusive: 8.91 µM [inhibitor, single point].
For COc1cc(C(=O)N/N=C/c2ccc(OC)c(CN3CCN(c4ccc(F)cc4)CC3)c2)ccc1O, the Potency was inconclusive: 35.5 µM [inhibitor, partial curve].
In the case of CC1=C(C(=O)OCc2ccccc2)C(c2ccc(Cl)cc2Cl)NC(=O)N1CCCC(=O)O (configuration not stated), the Potency is reported as active: 56.2 µM.
COCCN(C(=O)CSc1nnc(-c2ccc(C(C)(C)C)cc2)n1N)c1c(N)n(CC(C)C)c(=O)[nH]c1=O was tested, and the Potency was active: 39.8 µM.
For Cc1ccc(NC(=S)N/N=C2/CCCCc3ccccc32)cc1, the activity, negative = inhibition was inconclusive: -82.2% [inhibitor].
For Cc1nn2c(=O)cc(COC(=O)c3ccco3)nc2s1, the “activity, negative = inhibition” value was inactive: 4%.
For COc1ccc(C2Nc3ccccc3C(=O)N2Cc2ccccc2)cc1Cn1nnc2ccccc21 (configuration not stated), the Potency was inconclusive: 5.62 µM [inhibitor, full curve, poor fit].
For CC1(C)CC(=O)C2=C(C1)OC(N)=C(C#N)C2c1cccc(OC(=O)c2ccco2)c1 (configuration not stated), the Potency was inconclusive: 44.7 µM [inhibitor, partial curve, poor fit].
CC(C)(CNC(=O)c1ccc([N+](=O)[O-])c(Cl)c1)CNC(=O)c1ccc([N+](=O)[O-])c(Cl)c1 was tested, and the Potency was inconclusive: 44.7 µM [inhibitor, partial curve, poor fit].
With CCOC(=O)c1c(-c2cccc([N+](=O)[O-])c2)csc1NC(=O)C1CC1 the activity, negative = inhibition was inactive: -11.4% [at 2.33 µM].
In the case of CN(C(=O)CSc1nnc(COc2ccccc2F)n1N)C1CCCCC1, the “activity, negative = inhibition” value is reported as inactive: 11.6% [at 102 µM].
O=C(Nc1c(C(=O)N2CCN(c3ccccc3)CC2)oc2ccccc12)c1ccc(Br)o1 was tested, and the Potency was inconclusive: 35.5 µM [inhibitor, single point].
For CCN(CC)Cc1c(C(=O)N2CCc3ccccc3C2)nc2ccc(Cl)cn12, the activity, negative = inhibition was inactive: 7.86% [at 0.501 µM].
For CSc1ccccc1NC(=O)c1noc(C)c1[N+](=O)[O-], the Potency was active: 35.5 µM.
For CCOC(=O)c1ccc(-n2c(CCC(=O)O)ccc2-c2ccc(Br)cc2)cc1, the Potency was active: 15.8 µM.
With COc1cc(N=Cc2c(CO)cnc(C)c2O)cc(OC)c1OC the “activity, negative = inhibition” value was inactive: -7.95% [at 102 µM].
With CC(C)n1c(=S)[nH]c2cc(Cl)ccc21 the Potency was active: 10 µM.
COc1ccc(C(=O)NC(C(=O)NCCc2ccc3c(c2)OCCO3)C(C)C)cc1 (configuration not stated) was tested, and the Potency was inconclusive: 39.8 µM [inhibitor, single point].
For COCCN(C(=O)c1cc2c(s1)CCCCC2)c1c(N)n(Cc2ccccc2)c(=O)[nH]c1=O, the Potency was inconclusive: 44.7 µM [inhibitor, partial curve, poor fit].
In the case of Cc1ccc(-c2ccc(=O)n(CC(=O)Nc3ccc(C)cc3Cl)n2)cc1, the “activity, negative = inhibition” value is reported as inactive: 3.09%.
For CCn1c(Cc2cccs2)nnc1SCC(=O)c1ccc(C)cc1, the Potency was inconclusive: 25.1 µM [inhibitor, single point].
CC(=O)Nc1ccc(NC(=O)CC(c2ccccc2)c2ccccc2)cc1 was tested, and the Potency was inconclusive: 8.91 µM [inhibitor, partial curve, poor fit].
With O=C(CSc1nnc(CNc2ccc(F)cc2)o1)N1c2ccccc2Sc2ccccc21 the “activity, negative = inhibition” value was inactive: -13.5% [at 102 µM].
Cc1cccc(CSC2=NCCN2C(=O)c2ccc(Br)o2)c1 was tested, and the Potency was inconclusive: 79.4 µM [inhibitor, partial curve, poor fit].
COc1ccc(C2/C(=C(/O)c3ccccc3)C(=O)C(=O)N2c2ncccn2)cc1OC (configuration not stated) was tested, and the Potency was inconclusive: 39.8 µM [inhibitor, single point].
S=c1[nH]nc(-c2ccncc2)n1Cc1ccccc1 was tested, and the Potency was active: 10 µM.
In the case of CCCc1nnc(NC(=O)c2c(O)c3cccc4c3n(c2=O)CC4)s1, the Potency is reported as inconclusive: 0.708 µM [inhibitor, full curve, poor fit].
COc1cc(OC)cc(C(=O)NC(=S)NNC(=O)[C@H]2C[C@@H]2c2ccccc2)c1 was tested, and the Potency was active: 20 µM.
In the case of O=C(O)c1ccc(N/N=C/c2cc3cc4c(cc3nc2Cl)OCCO4)cc1, the Potency is reported as inconclusive: 89.1 µM [inhibitor, single point].
For Cc1ccc(C(=O)c2oc3ccccc3c2N)cc1, the Potency was inconclusive: 31.6 µM [inhibitor, single point].
O=C(N/N=C/c1ccco1)c1cccc(N2Cc3ccccc3C2)c1 was tested, and the Potency was active: 3.98 µM.
C=CCNC(=O)c1ccccc1NC(=O)C1CCN(S(=O)(=O)c2ccc(SC)cc2)CC1 was tested, and the “activity, negative = inhibition” value was inactive: 10% [at 102 µM].
Cc1cc(C)cc(OCC(=O)N(C)CC(=O)Nc2ccc(N3CCOCC3)cc2)c1 was tested, and the Potency was active: 35.5 µM.
COc1ccc(C(=O)Nc2ccc3oc(-c4cccnc4)nc3c2)cc1 was tested, and the Potency was inconclusive: 35.5 µM [inhibitor, single point].
CCOC(=O)C1(C)/C(=N/Nc2cccc(Cl)c2)C(=O)C(=O)N1c1ccccc1 (configuration not stated) was tested, and the Potency was inconclusive: 8.91 µM [inhibitor, single point].
In the case of Nc1nc(-c2ccccc2)[nH]c(=O)c1N=O, the Potency is reported as inconclusive: 70.8 µM [inhibitor, partial curve, poor fit].
With CCNC(=S)Nc1cccc(S(=O)(=O)NC2=NCCC2)c1 the “activity, negative = inhibition” value was inactive: 11.1%.
With O=C(CSc1nnc2c(n1)[nH]c1ccccc12)Nc1ccc2c(c1)OCO2 the Potency was active: 1.78 µM.
In the case of COc1ccc(N2CCN(c3nc(NC(C)(C)C)nc(N4CCCCC4)n3)CC2)cc1, the Potency is reported as inconclusive: 0.794 µM [inhibitor, partial curve, poor fit].
Further: nearly all actives have a fitted effect of over 75% in size.
On the % scale 0 is the no-effect control and ±100 the full control effect; potency means the concentration at half of the fitted maximal effect; tags describe the fitted curve by direction and shape.
